Measured values published in PubChem BioAssay AID1347073 (National Center for Advancing Translational Sciences (NCATS), 2019).
Hit rate of the full screen: of about 45,000 compounds, about 200 (0.44%) were called active. About 7% were inconclusive and are not listed. Calls come from the whole dose curve; as a rule, active = well fitted activation curve with a large enough effect; inconclusive = small, poorly fitted or top-dose-only effect; inactive = no such curve, though single readings can be large or run the other way. The list shows a part of the results.

Assay: qHTS of TDP-43 Inhibitors: NCGC Sytravon Library Screen; note: 0% is about no effect; nearly all actives have a fitted effect of over 55% in size
Conditions: yeast TDP-43 toxicity rescue, BacTiter-Glo growth, 24 h; series mostly up to 46.1 µM; growth rescue (activation): at the top concentration
Method in brief: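 TDP-43-expressing yeast, pregrown in raffinose, seeded at OD600 0.02 in galactose medium with compound for 24 hr at 30 deg C. Growth read by BacTiter-Glo luminescence, so rescue of toxicity appears as activation.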

| Structure (SMILES) | growth rescue (activation) |
| --- | --- |
| CCOC(=O)c1cc(-c2ccc3c(c2)OCCO3)n[nH]1 | inactive: 3.77% |
| O=c1c2nncn2c2cc(C(F)(F)F)ccc2n1CCNc1ncc(C(F)(F)F)cc1Cl | inactive: 24.9% |
| CC(C)OC(=O)C(=O)NNc1ccccc1 | inactive: 4.25% |
| C=CCNC(=O)NC(=O)COn1nnc2ccc(S(=O)(=O)N(C)C)cc21 | inactive: -1.24% |
| CCOC(=O)c1ccc(N2C(=O)CC(Nc3ccc(O)cc3)C2=O)cc1 (centres undefined) | inactive: -5.37% |
| CCOC(=O)c1c(NC(=O)Cn2nc(C(=O)O)c3ccccc3c2=O)sc2c1CCC(C)C2 (centres undefined) | inactive: -36.6% |
| CCC1(c2ccccc2)NC(=O)N(CC(=O)NCc2ccncc2)C1=O (centres undefined) | inactive: 13.3% |
| O=C(CCl)N1CCCC1c1ccc2c(c1)OCCO2 (centres undefined) | inactive: 13.8% |
| CCC(CC)NC(=O)c1cc([N+](=O)[O-])ccc1N1CCOCC1 | inactive: 7.05% |
| Cn1ccnc1SCC(=O)Nc1ccc(Cl)cn1 | inactive: 12.1% |
| COc1ccc(-c2csc3nc(-c4ccc(F)cc4)oc(=O)c23)cc1 | inactive: -13% |
| N#CC(C#N)=C(Nc1ccc(F)cc1)SCc1cccc(F)c1 | inactive: -2.26% |
| CCOc1ccccc1C(=O)N[C@H](C(=O)OCc1csc(CC(=O)Nc2ccc(C)cc2)n1)C(C)C | inactive: 4.96% |
| CC12CCC(=O)N1C(C(=O)Nc1cccc3ccccc13)CS2 (centres undefined) | inactive: 3.7% |
| Oc1c(C=Nc2ccccc2Cl)[nH]c2ccccc12 | inactive: 2.86% |
| O=C1CN(Cc2nc3cc(Cl)ccc3c(=O)[nH]2)CCN1 | inactive: -26.4% |
| CCn1ccc(C(=O)Nc2ccccc2SC)n1 | inactive: -0.494% |
| Nc1nonc1N/N=C/c1c(O)ccc2ccccc12 | inactive: -3.77% |
| CCN(CC(=O)NCc1cccs1)C(=O)c1cccc(S(=O)(=O)N(C)C)c1 | inactive: 11.9% |
| CC(=O)Nc1ccc(NC(=O)C(C)Sc2n[nH]c(=O)n2Cc2ccccc2)cc1 (centres undefined) | inactive: 13.1% |
| COc1ccc(NC(=O)C(=O)NNC(=O)c2cccs2)cc1 | inactive: 5.75% |
| O=c1c2c(nc3nc(NCc4ccc(Cl)cc4)[nH]n13)CCC2 | inactive: -9.61% |
| CCCc1nc2nc(C)c(NS(=O)(=O)c3ccc(C4CCCCC4)cc3)c(=O)n2[nH]1 | inactive: 14.5% |
| CCOc1ccc(CCNCc2c(C(=O)O)n(Cc3ccc(C)cc3)c3cc(OC)ccc23)cc1 | inactive: 11.3% |
| CCCCc1ccc(NC(=O)C(=O)NCCN2CCN(C(=O)c3ccc([N+](=O)[O-])cc3)CC2)cc1 | inactive: 4.04% |
| CC1=C(C)CC(C(=O)N2CCN(C/C=C/c3ccccc3)CC2)C(C(=O)O)C1 (centres undefined) | inactive: 5.32% |
| Cc1cc(NC(=O)CCC(=O)N(CC(=O)NC2CCCC2)c2cccc(F)c2)no1 | inactive: 17.5% |
| Cc1c(CNC2CCCC(C)C2C)c(C(=O)O)c(C)n1Cc1ccccc1 (centres undefined) | inactive: -0.161% |
| Cc1ccc(C)c(N(C(=O)c2csnn2)C(C(=O)NC2CCCC2)c2cccnc2)c1 (centres undefined) | inactive: -10.6% |
